Experimental data as given in PMC4336329 (PLoS ONE, 2015).
About 2,200 (0.71%) of roughly 310,000 compounds showed an effect of 50% or more. The effect is printed as a negative number. The list shows a part of the results.

Target: human ether-à-go-go-related gene (hERG) potassium channel (human, UniProt Q12809)
Test: primary screen, population patch clamp on CHO cells stably expressing hERG

human ether-à-go-go-related gene (hERG) potassium channel, sequence (Q12809 whole entry, looked up): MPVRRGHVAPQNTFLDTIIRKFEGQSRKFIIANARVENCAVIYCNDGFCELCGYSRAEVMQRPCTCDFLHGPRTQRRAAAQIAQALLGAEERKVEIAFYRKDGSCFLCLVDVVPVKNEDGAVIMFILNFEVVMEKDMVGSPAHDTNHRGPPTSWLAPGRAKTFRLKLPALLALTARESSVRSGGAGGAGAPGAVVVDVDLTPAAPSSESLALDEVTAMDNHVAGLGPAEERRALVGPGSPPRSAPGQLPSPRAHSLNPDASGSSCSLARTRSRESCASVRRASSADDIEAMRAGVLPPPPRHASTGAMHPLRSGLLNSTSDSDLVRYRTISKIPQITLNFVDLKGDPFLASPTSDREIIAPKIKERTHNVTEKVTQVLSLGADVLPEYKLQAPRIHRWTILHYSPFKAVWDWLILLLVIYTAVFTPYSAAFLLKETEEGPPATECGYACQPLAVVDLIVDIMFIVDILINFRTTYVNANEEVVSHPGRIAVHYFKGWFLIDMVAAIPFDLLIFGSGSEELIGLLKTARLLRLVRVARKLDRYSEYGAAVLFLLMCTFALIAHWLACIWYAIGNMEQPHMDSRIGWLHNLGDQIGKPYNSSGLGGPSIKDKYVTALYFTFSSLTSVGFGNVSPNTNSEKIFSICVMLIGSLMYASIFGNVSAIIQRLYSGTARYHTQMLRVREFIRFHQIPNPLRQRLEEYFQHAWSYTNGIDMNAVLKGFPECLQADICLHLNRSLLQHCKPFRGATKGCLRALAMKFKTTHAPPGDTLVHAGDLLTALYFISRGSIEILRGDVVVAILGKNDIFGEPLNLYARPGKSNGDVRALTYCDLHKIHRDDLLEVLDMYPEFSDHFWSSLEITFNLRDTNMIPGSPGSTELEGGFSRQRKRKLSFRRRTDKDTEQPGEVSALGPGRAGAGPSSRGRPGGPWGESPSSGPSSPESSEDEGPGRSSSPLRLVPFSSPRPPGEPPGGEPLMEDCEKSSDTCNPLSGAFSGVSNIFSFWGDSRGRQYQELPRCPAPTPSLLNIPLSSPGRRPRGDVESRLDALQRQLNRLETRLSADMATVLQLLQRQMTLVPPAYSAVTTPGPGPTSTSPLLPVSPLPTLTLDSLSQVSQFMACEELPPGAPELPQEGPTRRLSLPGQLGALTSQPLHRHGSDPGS

Row | Structure (SMILES) | hERG current change (%, negative = inhibition) at 1uM
1 | O=C1NC(=S)CN1c1ccccc1 | 13%
2 | COc1ccc(NC(C)(C)c2nnnn2-c2c(C)cccc2C)cc1 | 11.3%
3 | Cc1ccnc(NC(=O)Nc2cccc(F)c2)n1 | 6.95%
4 | COc1cc(/C=C/C(=O)OCC(=O)N2CCOCC2)ccc1OCC#N | 12%
5 | Nc1ncnc(Oc2cccc(C(F)(F)F)c2)c1[N+](=O)[O-] | 3.26%
6 | CN1CCN(c2nc(-c3cc4ccccc4o3)cs2)CC1 | 4.08%
7 | O=S(=O)(Nc1ccon1)c1ccc(Br)s1 | 13.1%
8 | CCc1ccc(OCC(=O)NC(NC(=S)Nc2ccccc2)C(Cl)(Cl)Cl)cc1 (stereo not shown) | 17.9%
9 | COC(=O)c1ccc(CSc2nnc(CNC(=O)c3ccccc3F)o2)o1 | 4.91%
10 | CCn1nnc2cc(C(=O)NCCc3ccccc3F)ccc21 | 3.36%
11 | COc1ccc2cnn(CCOc3cc(C)ccc3C(C)C)c(=O)c2c1OC | 10.1%
12 | COc1ccccc1CNC(=O)CNCCc1ccc(OC)c(OC)c1.O=C(O)C(=O)O | 10.9%
13 | O=C(Nc1cccc2c1CCCC2)c1ccccc1Cl | 12%
14 | CN1C(=O)N(CC(=O)Nc2sccc2C(N)=O)C(=O)C12CCCCC2 | -0.811%
15 | CC(=O)Nc1ccc(S(=O)(=O)NC2CCSc3ccccc32)cc1 (stereo not shown) | 6.11%
16 | Cc1c(C(=O)N2CCN(c3ccccn3)CC2)oc2c(F)cccc12 | 8.04%
17 | CC1(C)CC(=O)C(C=NCCN2CCN(C(=S)Nc3ccccc3)CC2)=C(O)C1 | -3.1%
18 | O=C(Cc1csc(Nc2nc(=S)[nH]c3ccccc23)n1)NCc1ccccc1Cl | 11.1%
19 | CCN(CC)C(=O)OCc1c(-c2ccccc2)ncc2ccccc12 | 10.7%
20 | Cn1c(C(C#N)/C(=N\S(=O)(=O)c2cccs2)c2ccccc2)nc2ccccc21 (stereo not shown) | 5.88%
21 | CSc1nc2ccc(S(=O)(=O)N3CCCC3)cc2s1 | 6.32%
22 | O=C(O)Cn1cc(/C=C2/SC(=O)N(CC(=O)N3CCCCCC3)C2=O)c2ccccc21 | 11.6%
23 | O=S(=O)(c1ccccc1)N1CCN(Cc2cc3c(cc2Br)OCCO3)CC1 | 10.3%

Row | Structure (SMILES) | hERG current change (%, negative = inhibition) at 1uM
24 | O=C(c1ccccc1/S(=N/S(=O)(=O)c1ccccc1)N1CCOCC1)N1CCOCC1 (stereo not shown) | 8.9%
25 | Cl.O=C(CNC1CCCCC1)NCC1(c2ccccc2)CCCC1 | -0.785%
26 | COc1cccc(CN2CCN(Cc3ccc4cccc(F)c4n3)CC2CCO)c1 (stereo not shown) | 0.936%
27 | COC(=O)c1ccc(CSc2nnc(-c3ccncc3)o2)o1 | 11.5%
28 | O=C(CSc1nnc(NC(=O)C2CCC2)s1)Nc1ccc(N2CCOCC2)cc1 | 16.5%
29 | O=S(=O)(NN=C1CCCCCCC1)c1ccc(Br)cc1 | 4.67%
30 | O=C(CSc1nccn1Cc1ccc(F)cc1)Nc1ccc(F)cc1F | 6.15%
31 | CCCCOc1ccc(S(=O)(=O)NNC(=O)c2cc3ccccc3o2)cc1 | 3.62%
32 | CCOc1ccccc1NC(=O)c1cccc2c1C(=O)N(CCOC)C2 | -15%
33 | O=C(NC1CCS(=O)(=O)C1)c1cc(-c2ccccc2)nc2ccccc12 (stereo not shown) | 14.1%
34 | CC1CCN(CCCCOc2ccccc2-c2ccccc2)CC1.O=C(O)C(=O)O | -74.9%
35 | CCOC(=O)c1cc2c(C)n(-c3ccc(OCC)cc3)c(C)c2ccc1=O | 0.277%
36 | CCOC(=O)c1sc2ccc(S(=O)(=O)N3CCCCC3)cc2c1N | 8.18%
37 | Cc1oc2c(CN(C)C)c(O)ccc2c(=O)c1-c1ccc2ccccc2n1 | -4.39%
38 | COC(=O)Cc1[nH]c(=O)[nH]c1C(=O)OC | 11.3%
39 | CCSCCC(NC1=CC(=O)CC(C)(C)C1)C(=O)O (stereo not shown) | -7.25%
40 | Cc1cccc(C(C)C)c1NC(=O)c1cccnc1 | 9.4%
41 | CCCn1nnc(NC(=O)COc2ccccc2Cl)n1 | 11.3%
42 | CC(C1CC1)N(Cc1ccccc1)C(=O)NC(=O)c1ccccc1 (stereo not shown) | 13.3%
43 | Cc1ccc(N(CC(=O)NCc2ccc(F)cc2)C(=O)c2csnn2)c(C)c1 | -12.3%
44 | Cc1ccccc1NS(=O)(=O)c1ccc(NC(=O)N2CCCCC2)cc1 | 6.57%
45 | NC(=O)C1CCN(C(=O)CCNS(=O)(=O)c2cc(Br)cnc2N)CC1 | 13.5%
46 | Cc1cc(C)nc(NC(=O)c2ccc(Br)cc2)n1 | 13.6%

Row | Structure (SMILES) | hERG current change (%, negative = inhibition) at 1uM
47 | CCC/C([O-])=N\S(=O)(=O)c1ccc(N=NN(C)C)cc1.[K+] | 13.1%
48 | CN(C)C(=O)Oc1cccc(NC(=O)c2ccccc2C(F)(F)F)c1 | 4.66%
49 | CCc1noc(C)c1C(=O)Nc1sc(C(=O)N(C)C)c(C)c1C#N | 18.6%
50 | Cc1nc2ccc(C(=O)c3ccccc3)cc2[nH]1 | 12.2%
51 | OCCNCC(O)Cn1ccc2ccccc21 (stereo not shown) | 10.5%
52 | CCc1cccc(C)c1NC(=S)N(CCN(C)C)C(C)c1ccco1 (stereo not shown) | 0.454%
53 | COc1ccc(-c2nc(CS(=O)(=O)CC(=O)NCc3ccccc3OC)c(C)o2)cc1 | 5.65%
54 | Nc1ccc(C(=O)N/N=C/c2cn(Cc3ccccc3)c3ccccc23)cc1 | 19.5%
55 | O=C(Nc1cccc(NC(=O)c2nccc3ccccc23)c1)c1ccco1 | 14.1%
56 | CCOC(=O)C1CCCN(C(=O)c2ccc(CS(=O)(=O)Cc3ccccc3C)o2)C1 (stereo not shown) | -3.4%
57 | COc1ccccc1-c1nnc(Nc2nc3c(OC)cccc3s2)o1 | 12.3%
58 | COC(=O)c1cccc(N2C(=O)C3CC=CCC3C2=O)c1 (stereo not shown) | 9.51%
59 | CCN(CC(=O)Nc1c(C(=O)OC)[nH]c2ccc(Cl)cc12)c1ccc2c(c1)OCO2 | 14.7%
60 | Cc1ccc(NS(=O)(=O)c2cccc3nsnc23)cc1C | -0.169%
61 | CCN(CC)CC(=O)N1CCCC(C(=O)c2ccccc2OC)C1 (stereo not shown) | 6.77%
62 | O=C1CNC(=S)N1C(CO)c1ccccc1 (stereo not shown) | 17%
63 | Cc1ccc(NC(=O)NCCCN2CCCC2=O)cc1Cl | 16.3%
64 | C=CCNC(=O)CN1CCC(c2nc3cc(C)c(C)cc3[nH]2)CC1 | -4.9%
65 | COc1ccc(N2CCN(Cc3nc4scc(-c5cccs5)c4c(=O)[nH]3)CC2)cc1 | -0.0962%
66 | CCc1ccc(NC(=O)CCCNC(=O)Cn2cnc3sc(C)c(C)c3c2=O)cc1 | 9.87%
67 | Cc1nccc(-c2ccc(-n3cnc4ccccc43)cc2)n1 | 8.1%
68 | CCCCCCNC(=O)Cc1nc2nc(C)cc(C)n2n1 | 10.4%
69 | CSc1ccccc1OCc1cc(C(=O)N(Cc2nccn2C)C(C)C)no1 | 2.51%

Row | Structure (SMILES) | hERG current change (%, negative = inhibition) at 1uM
70 | Cc1ccc(CNC(=O)C2CC(c3ccc([N+](=O)[O-])cc3)=NO2)cc1 (stereo not shown) | -5.57%
71 | COc1cc(S(=O)(=O)NCc2ccccc2)ccc1F | 9.89%
72 | COC(=O)CCCNS(=O)(=O)c1ccc2ccccc2c1 | 10.7%
73 | CCOC(=O)N1CCN(C(=O)c2ccc(-n3c(=S)[nH]c4ccccc4c3=O)cc2)CC1 | 11.8%
74 | COc1cc(/C=C2\C(=N)N3N=C(CC(=O)N4CCOCC4)SC3=NC2=O)cc(OC)c1OC | 18.9%
75 | COc1ccc(S(=O)(=O)N2CCN(C(=O)c3cc4c(s3)CCCC4)CC2)cc1 | -3.32%
76 | O=C(CN1CCN(C(c2ccccc2)c2ccccc2)CC1)NCc1ccccc1 | 11.5%
77 | O=C(NCC1CCCO1)c1ccccc1OCc1ccc(F)cc1 (stereo not shown) | 0.646%
78 | CC1CCCCN1C(=O)c1cnn2c(C(F)(F)F)cc(-c3ccco3)nc12 (stereo not shown) | -4.66%
79 | Cn1c(SCC(=O)N2CCOCC2)nnc1-c1ccc2ncccc2c1 | 14%
80 | COc1ccc(N(CC(=O)Nc2cccc(C(C)=O)c2)S(C)(=O)=O)cc1OC | 2.4%
81 | Cc1ccc(NC(CC(=O)c2ccccc2)C(=O)O)cc1Cl (stereo not shown) | 8.92%
82 | COc1ccc(OC)c(CN2CCSCC2)c1 | 11.3%
83 | COc1ccc(CCN2C(=O)C(O)=C(C(C)=O)C2c2ccccc2OC)cc1OC (stereo not shown) | 19.2%
84 | Cc1ccc(S(=O)(=O)N2CCN(C(=O)COC(=O)c3ccccn3)CC2)c(C)c1 | 13.5%
85 | COc1cc2c(cc1OC)C(C)N(CCN1C(=O)c3ccccc3C1=O)CC2 (stereo not shown) | 16.1%
86 | O=[N+]([O-])c1ccccc1/C=N\N1CCN(c2ccccc2)CC1 | 14.2%
87 | COCCNC(=O)C(=O)c1c(-c2ccccc2)[nH]c2ccccc12 | 4.01%
88 | CCOC(=O)N1CCN(C(=O)c2cn(C)c3ccc(S(=O)(=O)N(C)C4CCCCC4)cc3c2=O)CC1 | -16.7%
89 | CC1(C)CCC(C)(C)NC(=S)N1 | 17.8%
90 | COC(=O)c1cccc(NS(=O)(=O)c2ccc(OC)c(OC)c2)c1C | -1.89%
91 | CCc1ccccc1NC(=O)CNC(=O)c1n[nH]c(=O)c2ccccc12 | 12.4%
